# From PubChem BioAssay AID588855 (National Center for Advancing Translational Sciences (NCATS), 2011)
# In all, about 410,000 compounds went through this assay and about 5,000 (1.2%) were called active. The shares of active, inactive and inconclusive entries below differ from those in the screen. Calls come from the whole dose curve; as a rule, active = well fitted inhibition curve with a large enough effect; inconclusive = small, poorly fitted or top-dose-only effect; inactive = no such curve, though single readings can be large or run the other way. Where the call is inconclusive, the potency comes from a doubtful curve fit.
# Experiment: qHTS for Inhibitors of TGF-b; note: nearly all actives have a fitted effect of over 65% in size
# Conditions: HepG2 CAGA-GFP TGF-b/SMAD3 reporter, GFP fluorescence, 18 h, TGF-beta stimulated, 500 pg/mL final; series mostly up to 46.1 µM
# From the text: TGF-b is a main component in the TGF-b signaling pathway which plays diverse roles in cellular and development pathways. TGF-b is the mediated by the transcription factors Smads. Although the Smad-dependent pathway is the primary canonical TGF-b signaling node, TGF-b1 can also activate alternative signaling pathways, including those involving MAPK (ERK, JNK and p38). This interaction may mediate or enhance Smad-dependent responses, or can exert Smad-independent effects. The complexity of this signaling cascade allows the TGF-b superfamily to perform unique, overlapping or redundant functions. We believe that targeting the TGF-beta pathway at the Smad-transcription factor level may eliminate the consequences of disrupting the entire pathway and offer specificity without affecting other signaling pathways. Smad3 is the primary transducer of TGF-b's signals and Smad3 regulates many functions attributed to TGF-b signaling. We hypothesize that Smad3 inhibitors will selectively eliminate Smad3-specific TGF-beta signals without undesired off-target effects. We aim to identify Smad3-small molecule antagonists using a quantitative high throughput screening (qHTS) approach.
# A high-throughput assay was developed to screen the NIH Molecular Libraries Small Molecule Repository (MLSMR). This is a cell based assay, where TGF-b is tagged with GFP. A counterscreen is run that looks at cytotoxicity (please see summary AID).
# MH087449NIH Chemical Genomics Center [NCGC]
# NIH Molecular Libraries Probe Centers Network [MLPCN]
# Assay Submitter (PI): Sushil Rane, National Institute of […]
# Suspensions of trypsinized HEPG2 CAGA-GFP cells were dispensed into white, tissue culture-treated, solid 1536-well plates at 5uL/well (1000 cells/well final concentration) in DMEM medium supplemented with 1% FBS. Plates were incubated at 37 degrees C for 2 hours, after which 23 nL of compounds or DMSO were delivered to each well using a pin tool. One uL of recombinant TGF-beta in DMEM (1% FBS) was then dispensed (500 pg/mL final concentration), and plates were incubated at 37 degrees C for 18 hours. The plates were measured on an Acumen eX3 Explorer plate reader for GFP fluorescence (ex488/em500-530). GFP values were calculated by determining the mean GFP fluorescence of individual cells, and compiling these values for each well to determine a total well GFP signal. The %Activity was determined from the corrected fluorescence values. A titration of the known TGF-B inhibitor SB431542 was included to monitor plate performance, while unstimulated HEPG2 (-TGF-B) control wells were used to normalize %Activity of identified inhibitors; unstimulated wells corresponded to 100%Activity (full inhibition), while stimulated cell controls (+DMSO) were used to normalize 0%Activity (no inhibition).
# Concentration-response curves were fitted to the signals arising from the resulting fluorescence. The concentration-effect curves were then classified based on curve quality (r2), response magnitude and degree of measured activity, and compounds were subsequently categorized based on their curve class.
# Potency is the fitted concentration of half-maximal effect; tags give direction and shape of the fitted curve.
row,Structure (SMILES),Potency
1,CCOC(=O)c1c(C)[nH]c(C)c1S(=O)(=O)N(C)CC(=O)NCc1cccc(Br)c1,"inconclusive: 15.8 µM [inhibitor, partial curve, poor fit]"
2,C/C(=N\Nc1nc(Cl)c(Cl)cc1Cl)c1ccc(S(=O)(=O)NCc2ccco2)cc1,"inconclusive: 10 µM [inhibitor, partial curve, poor fit]"
3,O=C(CCc1ccccc1)NNC(=O)c1cc(Cl)ccc1O,inactive
4,COc1cc(C(C(=O)NC2CCCCC2)N(C(=O)Cc2c[nH]c3ccccc23)c2ccc(C)cc2)cc(OC)c1OC (configuration not stated),"inconclusive: 35.5 µM [inhibitor, single point]"
5,COCCCNCCCCOc1ccc(OCc2ccccc2)cc1,"inconclusive: 12.6 µM [inhibitor, partial curve, poor fit]"
6,C=CCC[C@H](Cc1ccc(F)cc1)C(=O)OC[C@@H](NC(=O)[C@@H](CC=C)CC(=O)N(CCO)Cc1ccccc1)C(C)(C)C,"inconclusive: 17.8 µM [inhibitor, single point]"
7,O=C(CSc1nnc(CNc2ccc(Cl)cc2)n1Cc1ccccc1)NCc1ccco1,"inconclusive: 10 µM [inhibitor, partial curve]"
8,CCOC(=O)C1CCCN(C(=O)c2ccc3c(c2)N(Cc2ccc(Cl)cc2)C(=O)c2ccccc2S3=O)C1 (configuration not stated),"inconclusive: 1.58 µM [inhibitor, full curve]"
9,COc1cccc(NC(=O)Nc2ccc3nc(N4CCN(C)CC4)cc(C)c3c2)c1,"inconclusive: 35.5 µM [inhibitor, single point]"
10,Cc1noc(/C=C/c2ccccc2F)c1S(=O)(=O)N1CCC(C(=O)Nc2ccc(C#N)cc2)CC1,active: 4.47 µM
11,CC(C)[C@H](NC(N)=O)C(=O)Nc1cccc([N+](=O)[O-])c1,active: 0.631 µM
12,O=C(Oc1c(CN2CCOCC2)cc(Cl)c2cccnc12)c1ccc(F)cc1,"inconclusive: 35.5 µM [inhibitor, single point]"
13,Cc1ccc(C)c(NC(=O)c2cc(S(=O)(=O)NCCc3ccccc3)ccc2F)c1,"inconclusive: 35.5 µM [inhibitor, single point]"
14,CCN(CC)CCNC(=O)c1ccc(NC(=O)c2ccc(C(=O)c3ccccc3)cc2)cc1,"inconclusive: 35.5 µM [inhibitor, single point]"
15,CCCCOc1ccccc1C1CC(=O)NC2=C1C(=O)CCC2 (configuration not stated),"inconclusive: 7.94 µM [inhibitor, partial curve, poor fit]"
16,Cc1ccc2c(CNC3CCCC3)c(C(=O)O)n(Cc3ccc(F)cc3)c2c1,"inconclusive: 35.5 µM [inhibitor, partial curve, poor fit]"
17,CN(C(=O)CSc1nc2ccccc2n1CC(=O)N(C)C1CCCCC1)c1ccccc1,inactive
18,O=C(CCl)Nc1c2c(nn1-c1ccccc1)CSC2,"inconclusive: 35.5 µM [inhibitor, single point]"
19,CC1(Oc2ccc(-n3ccnc3)cc2)CCN(Cc2cccn2-c2nccs2)C1 (configuration not stated),inactive
20,CC(C)Oc1ccc(CNC(=O)C2CCN(C(=O)N3CC(C)Oc4ccccc43)CC2)cc1 (configuration not stated),"inconclusive: 25.1 µM [inhibitor, single point]"
21,FC(F)(F)c1cc(-c2cccc(Br)c2)nc2ncnn12,inactive

row,Structure (SMILES),Potency
1,S=C(Nc1cccnc1)N1CCCCC1,inactive
2,COC(=O)CCN(C1CCCCC1)S(=O)(=O)c1ccc(S(=O)(=O)NC2CCCCC2)cc1,"inconclusive: 35.5 µM [inhibitor, single point]"
3,COc1ccc(NC(=O)C2C(c3ccccc3)C2(Cl)Cl)c(OC)c1 (configuration not stated),"inconclusive: 8.91 µM [inhibitor, partial curve]"
4,c1ccc(COn2c(-c3ccccc3)nc3c2CCc2nonc2-3)cc1,inactive
5,COc1ccc(-c2csc3nc(-c4ccccc4)oc(=O)c23)cc1OC,"inconclusive: 35.5 µM [inhibitor, single point]"
6,Cc1ccccc1C(=O)Nc1nc(-c2ccc(Br)cc2)ns1,inactive
7,CCOC(=O)c1ccc(NC(=O)c2nc[nH]c2C(=O)NCCCNC(=O)c2[nH]cnc2C(=O)Nc2ccc(C(=O)OCC)cc2)cc1,"inconclusive: 12.6 µM [inhibitor, single point]"
8,CCOc1ccc(C(=O)Nc2cccc(C(=O)O)c2C)cc1Cl,"inconclusive: 11.2 µM [inhibitor, single point]"
9,COc1ccc(S(=O)(=O)n2nc(OC(=O)c3cccs3)cc2NC(=O)c2cccs2)cc1,"inconclusive: 5.62 µM [inhibitor, partial curve, poor fit]"
10,CCOc1ccc(NC2=C(OC)C(=O)c3ccccc3C2=O)cc1,active: 11.2 µM
11,FC(F)Oc1ccccc1NC(=S)NCCc1ccccc1,inactive
12,CCOc1cc(Br)c(/C=C2/C(=O)N(C)C(=S)N2CC(=O)OC)cc1OC,"inconclusive: 4.47 µM [inhibitor, full curve, poor fit]"
13,CCOC(=O)c1cnc2ccc(OCC)cc2c1N1CCN(c2ccccc2F)CC1,active: 11.2 µM
14,CCOC1=C2[C@H](c3ccccc3)N(S(=O)(=O)c3ccccc3)C[C@H]2n2c(=O)n(-c3ccccc3)c(=O)n2C1,"inconclusive: 35.5 µM [inhibitor, single point]"
15,Cc1ccc(OCC(=O)O/N=C(\N)Cc2ccc(Cl)cc2)cc1,inactive
16,C[C@H](NC(=O)c1nc[nH]c1C(=O)N[C@@H](Cc1ccccc1)C(=O)OC(C)(C)C)C(=O)OC(C)(C)C,"inconclusive: 22.4 µM [inhibitor, partial curve, poor fit]"
17,S=C(Nc1ccccc1Cl)N(Cc1ccccc1)Cc1cccnc1,inactive
18,Cc1sc2nc(SCC(=O)NCc3cccs3)[nH]c(=O)c2c1C,inactive
19,O=C(c1ccncc1)N1N=C(c2ccc(Br)cc2)CC1c1ccccc1O (configuration not stated),"inconclusive: 35.5 µM [inhibitor, single point]"
20,CCCN1CCC(=O)N(C(CSc2ccc(C)cc2)Cc2ccccc2)CC1 (configuration not stated),"inconclusive: 11.2 µM [inhibitor, partial curve, poor fit]"
21,O=C(CSCc1cnn(-c2ccccc2)c1-n1cccc1)NCc1ccc(F)cc1,"inconclusive: 35.5 µM [inhibitor, single point]"
